Assay results: PubChem BioAssay (NCI)
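How tested: cells in 96-well plates exposed to compound for 48 hours at five concentrations. GI50 marks 50% less growth. TGI is the concentration that stops growth completely.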

What follows are compounds tested on NCI-H322M lung (assay: growth of human tumour cells (NCI), 48 h).
For `COc1cc(Cn2c(C(F)(F)F)cc3c(Cl)ncnc32)ccn1`, the GI50 was 1.71 µM and the TGI was 3.3 µM. In the case of `O=C(/C=C/Nc1ccc(Cl)cc1)c1ccc2c(c1)Nc1ccccc1S2`, the GI50 is reported as 12.8 µM and the TGI is reported as over 100 µM. For `OCCCNc1oc(-c2ccccc2)nc1[P+](c1ccccc1)(c1ccccc1)c1ccccc1`, the GI50 was 8.88 µM and the TGI was 21.6 µM.
